According to PubChem BioAssay AID1645882 (National Center for Advancing Translational Sciences (NCATS), 2021):
In all, about 16,000 compounds went through this assay and about 120 (0.75%) were called active. Inconclusive results (about 4%) are left out. Calls come from the whole dose curve; as a rule, active = well fitted inhibition curve with a large enough effect; inconclusive = small, poorly fitted or top-dose-only effect; inactive = no such curve, though single readings can be large or run the other way. The list shows a part of the results.

Target: Rap guanine nucleotide exchange factor 3 (Homo sapiens) (UniProt O95398)
Assay: Validation qHTS for antagonist of cAMP-regulated guanine nucleotide exchange factor 3 (EPAC1);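 note: plate controls were DMSO for no effect and ATA control for full effect; nearly all actives have a fitted effect of over 75% in size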
Details: EPAC1 Rap1B-BODIPY-GDP exchange, fluorescence; series mostly up to 150 µM; activity change, negative = inhibition: at the top concentration
Method in brief: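 EPAC1 (100 nM) mixed with 250 nM RAP1B-BODIPY-GDP and 50 uM GDP; compounds in concentration series, 5 min at room temperature. Fluorescence (ex 480/em 540 nm) read every 5 min for 30 min; normalized to ATA control and DMSO.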

Chain of UniProt O95398 (O95398 whole entry, looked up): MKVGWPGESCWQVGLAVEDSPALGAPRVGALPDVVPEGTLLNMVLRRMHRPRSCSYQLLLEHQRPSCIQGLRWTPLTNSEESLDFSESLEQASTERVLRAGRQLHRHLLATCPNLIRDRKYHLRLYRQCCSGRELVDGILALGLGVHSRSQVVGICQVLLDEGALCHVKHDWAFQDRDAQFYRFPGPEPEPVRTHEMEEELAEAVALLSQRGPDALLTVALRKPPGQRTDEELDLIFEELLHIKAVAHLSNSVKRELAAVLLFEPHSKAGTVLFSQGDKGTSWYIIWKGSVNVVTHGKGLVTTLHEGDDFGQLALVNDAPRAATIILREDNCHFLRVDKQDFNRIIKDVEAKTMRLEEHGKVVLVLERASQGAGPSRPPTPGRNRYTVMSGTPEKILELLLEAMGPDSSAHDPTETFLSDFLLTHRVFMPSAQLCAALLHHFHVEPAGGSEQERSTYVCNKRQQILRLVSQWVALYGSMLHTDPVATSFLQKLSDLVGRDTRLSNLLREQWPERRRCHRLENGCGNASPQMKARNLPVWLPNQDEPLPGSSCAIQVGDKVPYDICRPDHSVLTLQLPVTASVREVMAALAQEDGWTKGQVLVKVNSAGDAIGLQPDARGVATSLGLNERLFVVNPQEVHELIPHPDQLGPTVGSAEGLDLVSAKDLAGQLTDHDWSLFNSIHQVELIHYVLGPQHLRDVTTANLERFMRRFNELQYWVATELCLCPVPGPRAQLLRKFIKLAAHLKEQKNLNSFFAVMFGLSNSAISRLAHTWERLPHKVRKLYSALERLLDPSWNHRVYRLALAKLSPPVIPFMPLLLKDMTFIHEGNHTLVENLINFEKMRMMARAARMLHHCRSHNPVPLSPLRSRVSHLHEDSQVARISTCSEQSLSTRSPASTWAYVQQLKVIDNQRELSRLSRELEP

Activity change, negative = inhibition, inactive:
CC(=O)SC[C@@H](Cc1ccccc1)C(=O)NCC(=O)OCc1ccccc1 -1.37% [at 75.8 µM], COc1ncc2nc(-c3ccc(F)cc3)c(=O)n(C)c2n1 8.31%, Cc1noc(C)c1-c1nccc(N2CCNCC2)n1 20.8%, COC(=O)C[C@H]1c2ccccc2S(=O)(=O)N1c1cccc(OC)c1 -9.57%, NC(Cc1cccc(-c2ccccc2CP(=O)(O)O)c1)C(=O)O (stereo unspecified) -1.06% [at 75.8 µM], O=S(=O)(c1cccc2cnccc12)N1CCNCC1 -1.91%, COc1ccccc1C1CN(Cc2cccc3c2OCO3)Cc2ccccc2O1 (stereo unspecified) 13.3%, COc1ccc(CN2CC[C@H]3C=CC[C@@H](C(=O)Nc4nccs4)[C@H]3C2=O)cc1OC -9.93%, O=C(O)Cc1cccc(-c2cc(CCCCCCc3ccc(O[C@H]4O[C@H](CO)[C@@H](O)[C@H](O)[C@@H]4O)c(-c4cccc(CC(=O)O)c4)c3)ccc2O[C@H]2O[C@H](CO)[C@@H](O)[C@H](O)[C@@H]2O)c1 5.91%, CC(=O)N(O)CCCCCNC(=O)CCC(=O)N(O)CCCCCNC(=O)CCC(=O)N(O)CCCCCN, Cc1ccc(C)c(S(=O)(=O)NCc2nc(N3CCCC3)c3cc(Cl)ccc3n2)c1 -7.21%, Cc1ccccc1-c1ccc2ncnc(N3CCOCC3)c2c1 -2.13%, CC(C)(C(=O)c1cccnc1)c1cccnc1 23% [at 75.8 µM], C[C@@H](c1ncncc1F)C(O)(Cn1cncn1)c1ccc(F)cc1F (stereo partly specified) 21.6%, COc1ccc(/C=C/C(=O)CC(=O)/C=C/c2cccc(O)c2OC)cc1O 19.2% [at 201 µM], NCCCCNCCCN, Cc1cc[n+](C2CCCCC2)cc1 14.6%, Nc1ncn([C@H]2C[C@H](O)[C@@H](CO)O2)c(=O)n1 7.31%, Cc1ncc2c(c1O)COP(=O)(O)OC2 7%, O=C(c1cnn(-c2nccc(-c3ccccc3F)n2)c1C1CC1)N1CCCCC1c1cccnc1 (stereo unspecified) 12.1%, CN1CC(=O)NC1=N 14.5%, O=C1C(c2[nH]c3ccc(S(=O)(=O)O)cc3c2O)=Nc2ccc(S(=O)(=O)O)cc21, CS(=O)(=O)Nc1cccc(-c2nc(N3CCOCC3)c3ccccc3n2)c1 15.7%, Cc1c(C)c2c(c(C)c1OC(=O)CCC(=O)OCCO)CC[C@@](C)(CCC[C@H](C)CCC[C@H](C)CCCC(C)C)O2 -1.01%, O=S1(=O)CCOC[C@H](c2ccccc2)N1Cc1ccccc1 -9.69%, CCOC(=O)Cc1cccc(-c2cc(CCCCCCc3ccc(O[C@H]4O[C@H](COC(C)=O)[C@@H](OC(C)=O)[C@H](OC(C)=O)[C@@H]4OC(C)=O)c(-c4cccc(CC(=O)OCC)c4)c3)ccc2O[C@H]2O[C@H](COC(C)=O)[C@@H](OC(C)=O)[C@H](OC(C)=O)[C@@H]2OC(C)=O)c1 16.7%
